The results in this text go back to the supplement of paper PMC10338343.

± gives the standard deviation. Only a part is listed here, and it is no random draw.

In the experiment the test system is MIWI (PIWIL1) piRISC loaded with L1MC piRNA (30 nt). The experiment is described as follows: pre-steady-state target cleavage rate (min^-1); MIWI and MILI are mouse PIWI proteins and EfPiwi is from a freshwater sponge; tags in brackets are library labels; higher = faster piRNA-guided slicing of the target. Particulars: guide: L1MC piRNA 5'p-UAACUAAAUACUAUGCAAGCUGUAGGUCCU; auxiliary factor: 500 nM mouse GTSF1. The method in brief:
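In Cleave-'n-Seq, a transcribed, DNA-blocked target RNA library (0.1 nM) was combined with 1 nM active affinity-purified piRISC bearing one synthetic guide, with or without 500 nM GTSF1 partner protein. Reactions ran in HEPES–potassium acetate buffer at 33 °C for 0–8 or 0–960 min. Uncleaved targets were sequenced and normalised to depth and to weakly complementary targets, three trials were pooled, and k3 was capped at 0.0001 min^-1. The pre-steady-state cleavage rate was obtained by fitting a burst-and-steady-state model.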
In the case of UCCUCCUAGUGCUUGCAUAGUAUUUACAAA, the “pre-steady-state target cleavage rate” value amounted to 0.101 ± 0.019. UCGACCAACAGCUAGCAUAGUAUUUAGUUA: the “pre-steady-state target cleavage rate” value was determined as 1.08 ± 0.046. The result for UCCACGUAGAGCUUGCAUAGUAUUUAGUUA reads 0.988 ± 0.041; that for UCCUGGUACAGCUUGCAAAGUAAUUAGUUA, 0.558 ± 0.066; that for UCCUGGAUCAGCUUGGAUAGUAUUUUGUUA, 0.414 ± 0.043. For UCCUGGAACAGCUUGCAAUAGUAUUUAGUUA, the “pre-steady-state target cleavage rate” value stood at 0.0544 ± 0.011.

Turning to UCCACCUACAGGUUGCAAAGUAUUUAGUUA, the “pre-steady-state target cleavage rate” value came to 1 ± 0.04. As to AGGACCCACAGCUUGCAUAGUAUUUAGUUA, the “pre-steady-state target cleavage rate” value came out at 1.47 ± 0.093. As to AGGACCAACAGCUUCCAUAGUAUUUAGUUA, the “pre-steady-state target cleavage rate” value came to 0.0962 ± 0.019.

UCCUGCUACUGCUUGCAUAGUAAUUAGUUA: the “pre-steady-state target cleavage rate” value was found to be 0.301 ± 0.028. Turning to UCCUGCUAGAGCUUGCAUAGUAUUUAGUUA, the “pre-steady-state target cleavage rate” value was found to be 0.49 ± 0.049. In the case of UCCUGCUACAGAUUGCAUAGUAUUUAGUUA, the “pre-steady-state target cleavage rate” value worked out at 1.18 ± 0.06. For AGGACCAUGAGCUUGCAUAGUAUUUAGUUA, the “pre-steady-state target cleavage rate” value amounted to 1.14 ± 0.057. Take UCCUGGAUGACCUUGCAAAGUAUUUAGUUA: the “pre-steady-state target cleavage rate” value was 0.0697 ± 0.011. Take UCGAGCUACAGCUUGCAUAGUAUUUACAAA: the “pre-steady-state target cleavage rate” value came to 0.303 ± 0.04.

Take UCCUCCUACAGCAUGCAUAGUAUUUACUUA: the “pre-steady-state target cleavage rate” value stood at 0.409 ± 0.039. Then UCCUGGAUGAGCUUGCAUAGUAUUCAGUUA, with 0.311 ± 0.031. As for UCCUGGAUCAGCUUGCAUAGUAUAUAGUUA, the “pre-steady-state target cleavage rate” value turned out to be 0.78 ± 0.043. Then UCCUGGUACAGCAUGCAUAGUAUUUUGUUA, with 0.315 ± 0.037; and UCCUGGAUCAGCUUGCAUAGUUUUUUGUUA, with 0.148 ± 0.014. As for UCCUGGAUCAGCUUGCUAUGUAUUUAGUUA, the “pre-steady-state target cleavage rate” value is 0.0118 ± 0.0044. For the sequence UCCUGGAUGAGCUUGCAUAGUAUUUACAAA, the “pre-steady-state target cleavage rate” value came to 0.199 ± 0.034. The result for UGGACCUACAGCUUGCAUAGUAUAUAGAUA reads 0.177 ± 0.029; that for AGGACCUACAGCAUGCAUAGUAUUUACUUA, 0.609 ± 0.056; that for UCCUGGAUGAGCAUGCAUAGUAUUAAGUUA, 0.203 ± 0.024. Take UGGAGCUACAGCUUGCAUAGUUUUUAGUUA: the “pre-steady-state target cleavage rate” value came out at 0.427 ± 0.019. Turning to UCCUGGAUGUGCUUUCAUAGUAUUUAGUUA, the “pre-steady-state target cleavage rate” value turned out to be 0.15 ± 0.018.

As for AGGACCUACAGCAUGCAUAGUAUUUAGAUA, the “pre-steady-state target cleavage rate” value came out at 0.616 ± 0.05. As for UGGACCUACAGCUUGGCAUAGUAUUUAGUUA, the “pre-steady-state target cleavage rate” value was 1.01 ± 0.26. UGGACCUACAGCUUGCAUAGUAUUUUGAUA: the “pre-steady-state target cleavage rate” value was determined as 0.255 ± 0.029. For the sequence UCCUGGAACAGCUUGCAUAGUUAUUAGUAA, the “pre-steady-state target cleavage rate” value stood at 0.0357 ± 0.011. As to UGGACCUACAGCUUGCUUAGUAUUUACUUA, the “pre-steady-state target cleavage rate” value came out at 0.547 ± 0.047. Consider UCGAGCUACAGCUUGCAUAGUAUAUAGUUA, for which the “pre-steady-state target cleavage rate” value came out at 0.902 ± 0.056. The result for UCCUGCUACAGCUUGCAAAGUAAUUAGUUA reads 0.441 ± 0.035.

For UGGACCUACAGCUUGCAUAGAAUAUAGUUA, the “pre-steady-state target cleavage rate” value was 0.324 ± 0.031.

UCGACCUAGAGCUUGCAUAGAAUUUAGUUA: the “pre-steady-state target cleavage rate” value came to 0.325 ± 0.029. Turning to UCGACCUACAGCUUGCAAAGUAUUUAGAUA, the “pre-steady-state target cleavage rate” value stood at 0.544 ± 0.031. Turning to UCCUGGUACAGCUUAGCAUAGUAUUUAGUUA, the “pre-steady-state target cleavage rate” value is 0.873 ± 0.037. As for UCCACCUACAGCUUGGAAAGUAUUUAGUUA, the “pre-steady-state target cleavage rate” value is 1.01 ± 0.03. With UCCUCCUUGAGCUUGCAUAGUAUUUAGAAA, the “pre-steady-state target cleavage rate” value is 0.307 ± 0.043.
